# From publication PMC4336329 (PLoS ONE, 2015)
# Hit rate of the full screen: of about 310,000 compounds, about 14,000 (4.5%) showed an effect of 50% or more. Effects have a minus sign here. The list shows a part of the results.
# Target: human ether-à-go-go-related gene (hERG) potassium channel (human, UniProt Q12809)
# Assay: primary screen, population patch clamp on CHO cells stably expressing hERG
# 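Also: peak tail current of the secondary pulse compared with the same well before compound.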
# human ether-à-go-go-related gene (hERG) potassium channel, sequence (Q12809 whole entry, looked up): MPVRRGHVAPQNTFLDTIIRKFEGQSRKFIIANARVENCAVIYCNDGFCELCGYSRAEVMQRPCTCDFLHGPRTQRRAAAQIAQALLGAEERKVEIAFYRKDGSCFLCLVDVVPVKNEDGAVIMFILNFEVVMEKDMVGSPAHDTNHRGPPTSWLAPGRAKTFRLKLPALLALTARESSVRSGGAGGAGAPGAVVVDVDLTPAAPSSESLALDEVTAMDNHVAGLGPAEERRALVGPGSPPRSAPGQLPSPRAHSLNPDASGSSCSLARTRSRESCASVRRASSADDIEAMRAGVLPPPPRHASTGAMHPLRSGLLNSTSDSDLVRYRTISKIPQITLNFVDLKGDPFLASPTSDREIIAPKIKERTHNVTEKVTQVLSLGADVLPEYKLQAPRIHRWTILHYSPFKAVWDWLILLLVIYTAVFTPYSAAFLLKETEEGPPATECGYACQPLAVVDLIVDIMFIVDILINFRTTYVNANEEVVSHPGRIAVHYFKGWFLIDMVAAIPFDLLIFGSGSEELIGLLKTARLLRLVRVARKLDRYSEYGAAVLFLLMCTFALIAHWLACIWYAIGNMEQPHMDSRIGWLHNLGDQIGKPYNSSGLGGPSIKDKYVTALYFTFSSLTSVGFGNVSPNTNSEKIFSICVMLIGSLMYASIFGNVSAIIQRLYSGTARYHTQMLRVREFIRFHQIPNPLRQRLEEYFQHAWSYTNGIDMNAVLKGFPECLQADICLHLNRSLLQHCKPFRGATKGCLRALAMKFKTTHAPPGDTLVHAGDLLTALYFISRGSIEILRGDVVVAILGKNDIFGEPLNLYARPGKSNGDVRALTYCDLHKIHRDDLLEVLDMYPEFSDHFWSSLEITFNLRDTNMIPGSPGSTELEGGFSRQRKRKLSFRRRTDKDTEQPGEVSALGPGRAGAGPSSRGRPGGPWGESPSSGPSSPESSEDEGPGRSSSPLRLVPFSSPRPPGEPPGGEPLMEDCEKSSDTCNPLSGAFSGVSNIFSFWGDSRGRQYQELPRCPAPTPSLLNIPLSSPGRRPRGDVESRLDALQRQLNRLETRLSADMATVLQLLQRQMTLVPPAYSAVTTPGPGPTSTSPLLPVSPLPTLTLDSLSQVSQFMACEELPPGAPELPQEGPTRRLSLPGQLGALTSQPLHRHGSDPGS
row,SMILES,"hERG current change (%, negative = inhibition) at 10uM [%]"
1,Cc1ccc(S(=O)(=O)NCCCCCC(=O)Nc2cccc(C)c2)cc1,-39.2
2,O=C(Cn1cnc2c(nnn2-c2ccccc2)c1=O)NCc1ccco1,-24.1
3,CCCC(=O)NC(c1ccc(Cl)cc1Cl)c1ccc2cccnc2c1O (stereo not drawn),0.094
4,COc1ccccc1C1(O)CCN(CC(=O)Nc2c(C)nn(C)c2C)CC1,11.3
5,Cc1cc(C(=O)Cn2nnc3ccccc3c2=O)c(C)n1Cc1cccs1,-12.4
6,COc1ccc(C(=O)N2CCC(c3ccccc3)CC2)c(OC)c1OC,-9.01
7,COc1ccc(N=Cc2nc(-c3ccccc3)oc2OC(=O)c2ccccc2)cc1,12.3
8,Cc1ccc(/C=C/C(=O)Nc2ccc(S(=O)(=O)Nc3cc(C)nc(C)n3)cc2)cc1,21.2
9,Cc1cc(C)c(OCC(=O)Nc2nnn(C)n2)c(Br)c1,6.77
10,COc1ccc(S(=O)(=O)N2CCC(C(=O)NC3(C)CCS(=O)(=O)C3)CC2)cc1OC (stereo not drawn),7.87
11,Cn1cnc(S(=O)(=O)NC2CCN(Cc3c(F)cccc3Cl)CC2)c1,-18.6
12,Cc1cc(C)c2c(NC(=S)NC(=O)c3ccccc3)nn(C)c2n1,13.6
13,COc1ccc(CNC(=O)COc2ccc([N+](=O)[O-])cc2)cc1,-64.5
14,O=C1CC(c2ccco2)CC(O)=C1C=NCC1CCNCC1 (stereo not drawn),-3.84
15,CC(C)(c1ccc(O)cc1)c1ccc(O)cc1,21.4
16,O=C(N/C=C/n1cnc2cc(C(F)(F)F)ccc21)c1ccccc1F,-11.7
17,O=C(CSc1nnnn1-c1ccccc1)N1CCc2ccccc21,7.32
18,COc1ccc(NC(=O)CN2CCC(NC(=O)c3ccc(OC)cc3)CC2)cc1,-51.1
19,c1ccc(Oc2cc(-n3cncn3)ncn2)cc1,7.95
20,CCOC(=O)C1=C(C)N=C2SCCC(=O)N2C1c1ccc(OC)cc1 (stereo not drawn),25.4
21,COc1cccc(C(C)NC(=O)c2c(F)cccc2Cl)c1 (stereo not drawn),-4.69
22,CCOc1ccc(N(CC(=O)NCc2ccco2)S(C)(=O)=O)cc1,16
23,C=CCN1C=C/C(=C\C=C(C#N)C#N)c2ccccc21,-19.9

row,SMILES,"hERG current change (%, negative = inhibition) at 10uM [%]"
1,Br.CCSC(=Nc1ccccc1)N1CCOCC1,6.45
2,COc1cc(C(C)=O)ccc1OCC(=O)c1cc(C)n(C2CC2)c1C,-0.852
3,Cc1ccc2c(c1)N(CC(=O)NCc1cccs1)C(=O)CO2,5.4
4,CCOC(=O)N1CCN(C(=O)C2CCN(C(=O)c3ccc([N+](=O)[O-])cc3)CC2)CC1,-72
5,CC(Oc1ccc([N+](=O)[O-])cc1Cl)C(=O)Nc1ccc(C(N)=O)cc1 (stereo not drawn),7.04
6,O=C(O)c1cc(O)ccc1NC(=O)C1CCCO1 (stereo not drawn),-0.924
7,CN(C)c1ccc(/C=N\NC(=O)c2csnn2)cc1,12.9
8,N#Cc1ccsc1NC(=O)CSc1ncn[nH]1,-0.2
9,CNC(=O)c1ccc(-n2cccn2)nc1,3.69
10,C/C(Cc1ccccc1)=N\NC(=O)CNC(=O)c1ccc2c(c1)OCCO2,8.19
11,O=C(CN1CCCc2ccccc21)NC(=O)NC1CCCCC1,-17.7
12,COc1ccccc1CNC(=O)CSc1ccc(-c2cccc([N+](=O)[O-])c2)nn1,-28.9
13,CCOC(=O)COc1cccc2c(=O)n(CC(=O)NCc3ccc(F)cc3)ccc12,4.04
14,COc1ccc(S(=O)(=O)N2CCCCC2C(=O)O)cc1OC (stereo not drawn),27.7
15,CC1(C)CC(=O)C(N=Nc2cc(S(=O)(=O)N3CCOCC3)ccc2Cl)=C(O)C1,21.9
16,CCOC(=O)CC1NC(=O)c2ccccc21 (stereo not drawn),2.68
17,S=c1[nH]nc(-c2ccc(Cl)cc2Cl)n1-c1ccc2c(c1)OCCO2,6.46
18,O=C(CCSc1ccc(Cl)cc1)NCc1ccccn1,-10.4
19,O=C(Nc1ccccc1C(=O)N1CCCC1)c1ccc(Cl)cc1Cl,14
20,COc1ccccc1CNC(=O)C(C)Sc1ccsc1[N+](=O)[O-] (stereo not drawn),10.5
21,O=C(NCc1nc2ccccc2[nH]1)c1cccc(S(=O)(=O)N2CCOCC2)c1,-5.85
22,O=C(COc1ccc(S(=O)(=O)N2CCCCC2)cc1)NCc1ccccn1,9.02
23,O=S(=O)(c1ccc(Cl)cc1)N1CCC(n2cccc2)CC1,21.3

row,SMILES,"hERG current change (%, negative = inhibition) at 10uM [%]"
1,Cc1nn(-c2ccccc2)c(N)c1N=Nc1ccccc1,3.08
2,O=C(Nc1ccc(F)cc1)c1ccccc1NS(=O)(=O)N1CCCC1,-13.9
3,COc1ccc(-c2nn(-c3ccccc3C)cc2CNCCc2cnc[nH]2)cc1F,-70.6
4,N#Cc1c(NC(=O)C2CC(Cl)=CCC2C(=O)O)sc2c1CCCC2 (stereo not drawn),8.83
5,CC12CCC(C(=O)n3c1nc1ccccc13)C2(C)C (stereo not drawn),-3.14
6,COc1ccc(OC2OC3COC(c4ccco4)OC3C(O)C2NC(C)=O)cc1 (stereo not drawn),3.13
7,CSc1nc(SC)c2c3c(oc2n1)COC(C)(C)C3,7.86
8,O=C(O)CCC(=O)N1CCC(n2nnc3cc(C(F)(F)F)ccc32)CC1,10.5
9,COc1ccc2sc(NC(C)=O)nc2c1,3.39
10,COC(=O)c1cc(C(=O)c2cc(Br)ccc2O)coc1=N,30
11,Cl.O=C(CCc1ccccc1)OCCN1CCOCC1,11.8
12,CCN1C(=C(C#N)C#N)C=Cc2ccccc21,15.8
13,O=C(OCC(=O)N1CCc2ccccc21)c1ccncc1,-6.97
14,O=C(O)CC1(CC(=O)Nc2ccc3c(c2)OCCCO3)CCCCC1,2.87
15,O=C(Oc1cccc(C(=S)N2CCOCC2)c1)c1cccc(Cl)c1,16.1
16,COc1ccc(CCN(C)C2CC(=O)N(c3ccccc3)C2=O)cc1OC (stereo not drawn),-5.77
17,Cc1cc(S(=O)(=O)Nc2ccc(C(=O)NCCCN3CCCC3=O)cc2)ccc1F,8.37
18,c1ccc(CN2CCC(N3CCN(Cc4ccc5c(c4)OCO5)CC3)CC2)cc1,-39.8
19,Cc1cc(OCC(=O)NCc2ccccn2)c2c(C)cc(=O)oc2c1,-7.15
20,CCSc1nnc(CNC(=O)c2ccccc2F)n1-c1ccccc1OC,12.4
21,COc1cccc(OCCCN2CCN(S(=O)(=O)c3ccc(NC(C)=O)cc3)CC2)c1,-4.74
22,CC(C)Cc1ccc(/C(=N/O)C(=O)O)s1,3.56
23,CCOc1ccc(Cc2noc3c2C(=O)CCC3)cc1OCC,20.4

row,SMILES,"hERG current change (%, negative = inhibition) at 10uM [%]"
1,COC(=O)c1ccc(NC(=O)CSC2=Nc3ccccc3C3CC=NN23)cc1 (stereo not drawn),-7.06
2,O=C(COC(=O)c1ccc(O)cc1O)N=c1sccn1Cc1ccccc1Cl,-5.24
3,CCOC(=O)c1c(S(=O)(=O)N2CCN(C)CC2)c(C)n(C)c1C,6.74
4,CS(=O)(=O)C1=NSC2=NC(=O)/C(=C\c3ccc(OC(=O)c4ccco4)cc3)C(=N)N21,13.7
5,COc1ccccc1NS(=O)(=O)c1cc(NC(=O)C(C)NC(N)=O)ccc1N1CCCC1 (stereo not drawn),-32.2
6,CCCCOc1ccc(C(C)NC(=O)CCS(=O)(=O)Cc2ccccc2Cl)cc1 (stereo not drawn),8.55
7,CCc1nc(NC(=O)c2sc(C)nc2C)sc1C(=O)OC,7.48
8,Cc1ccc(C)c(NC(=O)C2CC(=O)N(C3CCCCC3)C2)c1 (stereo not drawn),2.58
9,COc1cc(S(=O)(=O)Nc2ccc3nc(C)sc3c2)ccc1NC(C)=O,21.3
10,Cc1ccccc1NC(=O)c1c(C)cc(=O)oc1C,25
11,Cc1ccc(OCC(=O)Nc2cc(S(=O)(=O)N3CCCCC3)ccc2N2CCN(C)CC2)c(C)c1,-57.7
12,CCCCN(CCCC)C(=O)CN(C)S(=O)(=O)c1ccc2c(c1)n(C)c(=O)c(=O)n2C,-37
13,CC1CN(c2ccccc2)c2nc3c(c(=O)[nH]c(=O)n3C)n2C1 (stereo not drawn),6.11
14,Cc1cccc(OCC(O)Cn2c(N3CCCCC3)nc3c2c(=O)[nH]c(=O)n3C)c1 (stereo not drawn),13
15,O=C(Nc1cccc2ncccc12)c1cc([N+](=O)[O-])ccc1Cl,19.6
16,COC(=O)c1c(N2C(=O)CC(Sc3ccccc3C(=O)O)C2=O)sc(C)c1C (stereo not drawn),27.9
17,O=C(CNC(=O)c1ccco1)NCC(=O)OCC(=O)c1ccc(Cl)c([N+](=O)[O-])c1,8.13
18,CCOc1ccc(-n2nnc3c(=O)n(CC(=O)NCc4ccco4)cnc32)cc1,10
19,CCc1c(C(=O)N/N=C/c2ccco2)nnn1-c1nonc1N,15.9
20,Cc1cccc(NC(=O)CN2C(=O)COc3ccc(Cl)cc32)c1,-4.75
21,Cc1ccc2nc(Nc3nc(C)cc(C(F)(F)F)n3)nc(C)c2c1,0.741
